{"source": "PubChem BioAssay AID504845", "about": "(National Center for Advancing Translational Sciences (NCATS), 2011)", "note": "About 150 (0.038%) of roughly 390,000 compounds were called active. Inconclusive means that the source gave no clear call. Such entries were picked first, then a sample of the others. Calls follow the shape of the dose curve; as a rule, active = well fitted inhibition curve with a large enough effect; inconclusive = small, poorly fitted or top-dose-only effect; inactive = no such curve, though single readings can be large or run the other way. Where the call is inconclusive, the potency comes from a doubtful curve fit."}
{"target": "Regulator of G-protein signaling 4 (Homo sapiens) (UniProt P49798)", "sequence (P49798 whole entry, looked up)": "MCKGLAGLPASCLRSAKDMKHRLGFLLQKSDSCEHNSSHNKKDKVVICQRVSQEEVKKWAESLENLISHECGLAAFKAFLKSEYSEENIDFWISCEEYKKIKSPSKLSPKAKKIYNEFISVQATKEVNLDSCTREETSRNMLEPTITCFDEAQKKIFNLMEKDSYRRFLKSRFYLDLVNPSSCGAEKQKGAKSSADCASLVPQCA", "test": "Inhibitors of Regulator of G Protein Signaling (RGS) 4: qHTS; also: nearly all actives have a fitted effect of over 75% in size; also: potency is read from the fitted curve at half-maximal effect; tags tell the direction and shape of the fitted curve; as to activity change, negative = inhibition: % is scaled to controls: 0 for no effect and ±100 for the full control effect", "conditions": "Transcreener GDP fluorescence polarization, RGS4-accelerated GTP hydrolysis; series mostly up to 114 µM; activity change, negative = inhibition: at the top concentration", "summary_of_the_method": "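MLSMR compounds (23 nl, pin-transferred) preincubated 10 min at room temperature with a 500nM (2x) first reagent, then RGS4 at 900nM (2x) plus Transcreener GDP mix added; fluorescence polarization (620/688 nm) read before and after 90 min at 30 °C.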"}
{"compound": "O=C(CSc1nnc(C2COc3ccccc3O2)o1)N1CCCC1", "note": "(stereo not given)", "Potency": "inconclusive: 17.8 µM [inhibitor, full curve, poor fit]"}
{"compound": "O=Cc1ccc(OCc2nnsc2Cl)cc1", "Potency": "inconclusive: 89.1 µM [inhibitor, single point]"}
{"compound": "COc1ccc(Br)cc1CNc1ccc(O)cc1", "Potency": "inconclusive: 56.2 µM [inhibitor, partial curve, poor fit]"}
{"compound": "COc1ccc(-c2cc(C(=O)OCC(=O)c3cccc([N+](=O)[O-])c3)c3cc(C)ccc3n2)cc1", "activity change, negative = inhibition": "inactive: 21.6%"}
{"compound": "COc1ccc(OC)c(-c2c3cc(O)c(=O)cc-3oc3cc(O)c(O)cc23)c1", "Potency": "inconclusive: 17.8 µM [inhibitor, full curve, poor fit]"}
{"compound": "Cc1ccc(S(=O)(=O)NC2=C(N3CCN(Cc4ccccc4)CC3)C(=O)c3ccccc3C2=O)cc1", "Potency": "inconclusive: 89.1 µM [inhibitor, single point]"}
{"compound": "COc1cc(NS(=O)(=O)c2ccc(-c3cc(C)no3)cc2)cc(OC)c1", "Potency": "inconclusive: 89.1 µM [inhibitor, single point]"}
{"compound": "COc1ccccc1-c1nc2cc(NC(=O)c3ccccc3Cl)ccc2o1", "Potency": "inconclusive: 44.7 µM [inhibitor, partial curve, poor fit]"}
{"compound": "CSc1ccccc1C(=O)C1CCCN(Cc2c(C)n(C)n(-c3ccccc3)c2=O)C1", "note": "(stereo not given)", "activity change, negative = inhibition": "inactive: -0.593%"}
{"compound": "Cc1nc2ccc([N+](=O)[O-])cc2c(=O)n1Cc1ccc(F)cc1", "Potency": "inconclusive: 79.4 µM [inhibitor, partial curve, poor fit]"}
{"compound": "Cc1ccc(SCc2nc(-c3ccc(C(=O)NCC(C)c4ccccc4)cc3)oc2C)cc1", "note": "(stereo not given)", "activity change, negative = inhibition": "inactive: 10.1%"}
{"compound": "CCC(=O)N(CC)C1=C(O)c2ccccc2C(=O)C1=O", "Potency": "inconclusive: 44.7 µM [inhibitor, partial curve, poor fit]"}
{"compound": "CCN1CCc2c(sc(NC(=O)c3ccc(S(=O)(=O)N4CCCCCC4)cc3)c2C(=O)NC)C1", "Potency": "inconclusive: 20 µM [inhibitor, full curve, poor fit]"}
{"compound": "CC(/C=C/c1ccco1)=N/NC(=O)OC(C)(C)C", "Potency": "inconclusive: 50.1 µM [inhibitor, partial curve, poor fit]"}
{"compound": "Cc1cccc2cc(C(c3nnnn3CC3CCCO3)N3CCc4ccccc4C3)c(=O)[nH]c12", "note": "(stereo not given)", "Potency": "inconclusive: 79.4 µM [inhibitor, partial curve, poor fit]"}
{"compound": "CN(C)c1ccc(-c2nn3c(-c4ccccc4Cl)nnc3s2)cc1", "Potency": "inconclusive: 79.4 µM [inhibitor, partial curve, poor fit]"}
{"compound": "Cc1[nH]c2ccc(Br)cc2c(=O)c1CN1CCOCC1", "activity change, negative = inhibition": "inactive: 29.7%"}
{"compound": "COc1ccc(-n2nc(C(=O)NCC(=O)NCCCN3CCCCCC3)c3ccccc3c2=O)cc1Cl", "Potency": "inconclusive: 35.5 µM [inhibitor, full curve, poor fit]"}
{"compound": "CCOC(=O)CSc1nc2c(sc(=S)n2-c2ccc(CC)cc2)c(=O)[nH]1", "Potency": "inconclusive: 100 µM [inhibitor, partial curve, poor fit]"}
{"compound": "COc1ccc(-c2nc3cc(NC(=O)c4ccc(C)cc4)ccc3o2)cc1Cl", "activity change, negative = inhibition": "inactive: 42.8%"}
{"compound": "COc1ccc(NC(=S)Nc2ccc(N)c([N+](=O)[O-])c2)cc1", "activity change, negative = inhibition": "inactive: -19.5%"}
{"compound": "CC(C)(C)c1cc(C(=O)NCc2ccccc2)ccn1", "activity change, negative = inhibition": "inactive: -40.8%"}
{"compound": "Clc1ccc(CN2CCc3c([nH]c4ccccc34)C2)cc1Cl", "activity change, negative = inhibition": "inactive: -22%"}
{"compound": "Cc1nc2ccc(NC3=NCCCCC3)cc2s1", "Potency": "inconclusive: 79.4 µM [inhibitor, partial curve, poor fit]"}
{"compound": "COc1ccc(S(=O)(=O)N2CC3CCCN3c3cc(C(F)(F)F)ccc32)cc1", "note": "(stereo not given)", "activity change, negative = inhibition": "inactive: 1.02%"}
{"compound": "c1ccc(-c2ccc(OCCCn3cncn3)cc2)cc1", "activity change, negative = inhibition": "inactive: 3.42% [at 11.4 µM]"}
{"compound": "O=C(CSc1nnc(-c2cccnc2)n1Cc1ccco1)N1c2ccccc2Sc2ccccc21", "activity change, negative = inhibition": "inactive: -21.7%"}
{"compound": "CCN(CC)CCN(C(=O)c1ccc2ncsc2c1)c1nc2cc3c(cc2s1)OCO3", "Potency": "inconclusive: 50.1 µM [inhibitor, partial curve, poor fit]"}
{"compound": "O=C(CCC(=O)N1CCN(S(=O)(=O)c2ccc(Cl)cc2)CC1)Nc1ccc(Cl)cc1Cl", "Potency": "inconclusive: 50.1 µM [inhibitor, partial curve, poor fit]"}
{"compound": "CCCCc1nc(N2CCOCC2)c(C#N)c2c1COC(C)(C)C2", "Potency": "inconclusive: 89.1 µM [inhibitor, single point]"}
{"compound": "CCOC(=O)c1sc(NC(=O)C(C)C)c(C#N)c1C", "Potency": "inconclusive: 100 µM [inhibitor, partial curve, poor fit]"}
{"compound": "CCC(=O)Nc1sc2c(c1C(=O)Nc1ccc(Br)cc1)CCCCC2", "Potency": "inconclusive: 56.2 µM [inhibitor, partial curve, poor fit]"}
{"compound": "Cc1ccc([N+](=O)[O-])cc1NC(=O)CN1CCCCC1", "activity change, negative = inhibition": "inactive: 18.9%"}
{"compound": "O=C(COC(=O)CNS(=O)(=O)c1cccc(Br)c1)NC(=O)Nc1ccc2c(c1)OCCO2", "activity change, negative = inhibition": "inactive: 2.15%"}
{"compound": "COc1cccc(-c2nn(-c3ccc(C)cc3)cc2C(=O)N2CCc3cc(OC)c(OC)cc3C2)c1", "activity change, negative = inhibition": "inactive: -4%"}
{"compound": "CCOc1ccc(-c2nc(C#N)c(N3CCN(CC)CC3)o2)cc1", "activity change, negative = inhibition": "inactive: -19.3%"}
{"compound": "O=C1CC(c2ccccc2)=NO1", "Potency": "inconclusive: 44.7 µM [inhibitor, partial curve, poor fit]"}
{"compound": "CN(C)S(=O)(=O)c1cccc(NC(=O)COC(=O)/C=C/c2ccco2)c1", "Potency": "inconclusive: 89.1 µM [inhibitor, single point]"}
{"compound": "CCc1ccccc1NC(=O)NC(CC)Cn1nnc2ccccc2c1=O", "note": "(stereo not given)", "activity change, negative = inhibition": "inactive: -8.29%"}
{"compound": "Cc1occc1-c1nnc(SCC(=O)N2c3ccccc3CCc3ccccc32)n1C", "Potency": "inconclusive: 89.1 µM [inhibitor, single point]"}
{"compound": "COc1ccc(C(=O)NC(=S)NNC(=O)c2ccccc2C)cc1", "Potency": "inconclusive: 50.1 µM [inhibitor, partial curve, poor fit]"}
{"compound": "O=c1[nH]c(=S)[nH]c2c1C(c1ccc(Br)cc1)c1c([nH]c(=S)[nH]c1=O)O2", "Potency": "inconclusive: 35.5 µM [inhibitor, full curve, poor fit]"}
{"compound": "CCOC(=O)C(=Cc1cc(=O)c(OC)co1)C(=O)OCC", "Potency": "inconclusive: 44.7 µM [inhibitor, partial curve, poor fit]"}
{"compound": "O=C(Cc1ccc(Cl)cc1)Nc1ccc2oc(-c3ccccc3F)nc2c1", "Potency": "inconclusive: 17.8 µM [inhibitor, partial curve, poor fit]"}
{"compound": "CCOc1c(Br)cc(/C=C2\\C(=O)N(CCC#N)N=C2C)cc1OC", "Potency": "inconclusive: 79.4 µM [inhibitor, partial curve, poor fit]"}
{"compound": "CCOC(=O)c1ccc2nc(NC(=O)c3cccs3)sc2c1", "Potency": "inconclusive: 89.1 µM [inhibitor, partial curve, poor fit]"}
{"compound": "CC(C)CC1=C/C(=C/c2ccc(-c3ccccc3)o2)C(=O)O1", "Potency": "inconclusive: 31.6 µM [inhibitor, full curve, poor fit]"}
{"compound": "COC(=O)C1=C(CSc2nnnn2C)NC(=O)NC1c1cc(C)ccc1C", "note": "(stereo not given)", "Potency": "inconclusive: 89.1 µM [inhibitor, single point]"}
{"compound": "N#CC1=C2SCN(Cc3ccccc3)CN2C(=O)CC1c1ccccc1F", "note": "(stereo not given)", "Potency": "inconclusive: 17.8 µM [inhibitor, full curve, poor fit]"}
{"compound": "CN(C)c1ccc(C(CC(=O)c2ccccc2)C2CCCCC2=O)cc1", "note": "(stereo not given)", "Potency": "inconclusive: 79.4 µM [inhibitor, partial curve, poor fit]"}
{"compound": "CSc1nc(N)nc(SCC(=O)Nc2ccc(Cl)cc2)c1C#N", "activity change, negative = inhibition": "inactive: 15.3%"}
{"compound": "Cc1cc(C)c(NC(=O)OCCN2CCOCC2)c(C)c1", "activity change, negative = inhibition": "inactive: -57.6% [at 11.4 µM]"}
{"compound": "CC(C)(C)OC(=O)NCCCC[C@H](NC(=O)c1[nH]cnc1C(=O)Nc1ccc(CNC(=O)OC(C)(C)C)cc1)C(=O)OC(C)(C)C", "activity change, negative = inhibition": "inactive: -3.96%"}
{"compound": "CCOc1ccc(/C=C/c2nc(C#N)c(NCCCOC)o2)cc1", "Potency": "inconclusive: 79.4 µM [inhibitor, partial curve, poor fit]"}
{"compound": "Cc1ccc(S(=O)(=O)Nc2ccc3nc(C)oc3c2)cc1", "activity change, negative = inhibition": "inactive: -18.6%"}
{"compound": "CCOC(=O)C1=C(Cc2ccc(F)cc2)C(=O)c2ccccc2C1=O", "Potency": "inconclusive: 39.8 µM [inhibitor, partial curve, poor fit]"}
{"compound": "CSc1ccc(C2C(C(=O)c3ccco3)=C(O)C(=O)N2c2nnc(SC)s2)cc1", "note": "(stereo not given)", "Potency": "inconclusive: 79.4 µM [inhibitor, partial curve, poor fit]"}
{"compound": "NSc1nc(N)c2nc(-c3ccccc3)c(-c3ccccc3)nc2n1", "Potency": "inconclusive: 79.4 µM [inhibitor, partial curve, poor fit]"}
{"compound": "CCOc1ccc(NC(=O)c2cc(F)c(F)cc2Cl)cc1OCC", "activity change, negative = inhibition": "inactive: -6.17%"}
{"compound": "Cc1cccc(NC(=O)Cc2noc3ccccc23)c1", "activity change, negative = inhibition": "inactive: 34.4%"}
{"compound": "CCC1Oc2ccc(C)cc2N(CC(=O)N(Cc2ccc(C)o2)C2CCCC2)C1=O", "note": "(stereo not given)", "Potency": "inconclusive: 44.7 µM [inhibitor, partial curve, poor fit]"}
{"compound": "O=C(Cn1c(=O)n2nc(-c3cccc(F)c3)nc2c2ccccc21)N1CCN(c2ccccc2F)CC1", "Potency": "inconclusive: 89.1 µM [inhibitor, single point]"}
{"compound": "CC1CCCCN1C(=O)COc1ccccc1F", "note": "(stereo not given)", "Potency": "inconclusive: 56.2 µM [inhibitor, partial curve, poor fit]"}
{"compound": "O=C(Nc1ccc2nc3n(c(=O)c2c1)CCCC3)c1cccnc1Cl", "Potency": "inconclusive: 17.8 µM [inhibitor, full curve, poor fit]"}
{"compound": "O=C(N/N=C\\C=C\\c1ccco1)C1COc2ccccc2O1", "note": "(stereo not given)", "Potency": "inconclusive: 50.1 µM [inhibitor, partial curve, poor fit]"}
